About 2,200 (0.71%) of roughly 310,000 compounds showed an effect of 50% or more. Effects have a minus sign here. Some of the results follow.
Target: human ether-à-go-go-related gene (hERG) potassium channel (human, UniProt Q12809)
Assay: primary screen, population patch clamp on CHO cells stably expressing hERG

Chain of human ether-à-go-go-related gene (hERG) potassium channel (Q12809 whole entry, looked up): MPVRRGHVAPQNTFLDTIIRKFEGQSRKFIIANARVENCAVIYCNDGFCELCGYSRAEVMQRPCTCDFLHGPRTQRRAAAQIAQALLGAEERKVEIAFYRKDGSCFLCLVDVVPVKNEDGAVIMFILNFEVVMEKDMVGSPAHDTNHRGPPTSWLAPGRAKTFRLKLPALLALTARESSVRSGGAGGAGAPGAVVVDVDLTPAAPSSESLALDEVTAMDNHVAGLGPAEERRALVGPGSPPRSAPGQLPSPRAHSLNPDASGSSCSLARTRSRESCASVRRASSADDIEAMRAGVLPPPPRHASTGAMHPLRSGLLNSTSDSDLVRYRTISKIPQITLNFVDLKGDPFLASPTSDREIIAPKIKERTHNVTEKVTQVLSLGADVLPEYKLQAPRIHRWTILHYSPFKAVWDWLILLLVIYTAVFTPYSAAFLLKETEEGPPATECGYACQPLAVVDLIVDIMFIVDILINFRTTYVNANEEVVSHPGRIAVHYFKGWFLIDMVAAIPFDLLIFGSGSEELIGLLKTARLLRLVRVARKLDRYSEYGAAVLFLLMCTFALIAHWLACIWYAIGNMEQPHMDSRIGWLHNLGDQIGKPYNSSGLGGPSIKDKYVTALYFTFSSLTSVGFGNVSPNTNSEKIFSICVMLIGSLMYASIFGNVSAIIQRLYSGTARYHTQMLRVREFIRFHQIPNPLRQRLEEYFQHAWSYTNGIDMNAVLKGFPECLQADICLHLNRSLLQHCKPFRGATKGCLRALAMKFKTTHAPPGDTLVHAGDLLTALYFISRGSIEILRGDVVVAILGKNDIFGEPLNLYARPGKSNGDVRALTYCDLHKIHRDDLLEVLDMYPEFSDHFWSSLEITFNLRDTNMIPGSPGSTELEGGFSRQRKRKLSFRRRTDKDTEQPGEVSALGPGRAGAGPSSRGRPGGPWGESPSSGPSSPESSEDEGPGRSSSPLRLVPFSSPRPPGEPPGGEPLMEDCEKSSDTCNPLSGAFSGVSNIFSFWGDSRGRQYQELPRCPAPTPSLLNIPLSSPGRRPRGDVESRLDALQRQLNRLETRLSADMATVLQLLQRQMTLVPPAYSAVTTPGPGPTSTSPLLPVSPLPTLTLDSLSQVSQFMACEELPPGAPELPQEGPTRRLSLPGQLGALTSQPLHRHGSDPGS

Going from `CN1CCN(C(=O)C2=C[C@@H](c3ccc4c(c3)OCO4)C[C@@H](OCc3ccc(CO)cc3)O2)CC1` to `CCOC(=O)c1ccc(S(=O)(=O)N2CCN(C(=O)c3cc(=O)c4ccccc4o3)CC2)cc1`, the “hERG current change (%, negative = inhibition) at 1uM” value rises from 1.17% to 14.8%.

First: O=C(OC1CCS(=O)(=O)c2sccc21)c1ccccc1 (stereo not drawn)
Second: C=CC[C@]12CCc3sccc3C1N(c1ccc(C(=O)OCC)cc1)C2=O (stereo partly drawn)
The “hERG current change (%, negative = inhibition) at 1uM” value of the first is lower: 1.05% for the first, 7.56% for the second.

First: Cc1cc(C)cc(NS(=O)(=O)c2ccc(NC(=O)C3CCCCC3C(=O)O)cc2)c1 (stereo not drawn)
Second: CC(=O)Nc1ccc(NC(=O)C(C)OC(=O)C2CCN(S(=O)(=O)c3cccs3)CC2)cc1 (stereo not drawn)
The “hERG current change (%, negative = inhibition) at 1uM” value of the first is higher: 7.48% for the first, 6.39% for the second.

First: CCOc1ccc(NC(=O)N(C2CCCCC2)C2CCN(C(C)=O)CC2)cc1
Second: CCCCN(C(=O)CCC(=O)Nc1cc(C)on1)C(C(=O)NC1CCCC1)c1ccc(OCC)cc1 (stereo not drawn)
The “hERG current change (%, negative = inhibition) at 1uM” value of the first is lower: -6.81% for the first, 4.26% for the second.

First: COc1cccc(-c2nc(NCc3cccnc3)c3ccccc3n2)c1O
Second: COc1cccc(C2NC(=O)c3ccccc3O2)c1OCc1ccccc1F (stereo not drawn)
The “hERG current change (%, negative = inhibition) at 1uM” value of the first is higher: 14.2% for the first, 0.42% for the second.

First: O=C(NC1CCN(Cc2ccccc2)CC1)c1ccccc1Cl
Second: Cc1ccccc1NC(=S)N1CCN(Cc2ccccc2)CC1
The “hERG current change (%, negative = inhibition) at 1uM” value of the first is higher: 18.5% for the first, 8.17% for the second.

Going from `COC(=O)C1=C(c2cc3ccccc3o2)C[C@@H]2CC[C@H]1N2C(=O)N1CCC(O)CC1` to `COc1ccc(-n2nc(C(=O)NCC(=O)N3CCC4(CC3)OCCO4)c3ccccc3c2=O)cc1`, the “hERG current change (%, negative = inhibition) at 1uM” value rises from 11.1% to 16.8%.

First: C=CCNC(=O)/C(C#N)=C/c1ccc(C(=O)O)cc1
Second: Cc1ccc(CNC(=O)/C(C#N)=C\c2ccc(N(C)C)cc2)cc1
The “hERG current change (%, negative = inhibition) at 1uM” value of the first is higher: 11.2% for the first, 8.36% for the second.

Compared with `O=C(Nc1ccc(C(=O)NCC2CCN(Cc3ccccc3F)CC2)cc1)C1=CSCCO1`, `CSc1ccc(CN2CCC(Oc3ccc(C(=O)N4CCCC4)cc3)CC2)cc1` is lower in “hERG current change (%, negative = inhibition) at 1uM” value: 16.9% for the first, -56.4% for the second.

First: O=S(=O)(c1ccc(Oc2ccc(-c3nnco3)cc2)nc1)N1CCC(Cc2ccccc2)CC1
Second: CC(=O)Nc1ccc(-c2cc(-c3ccccc3)nc(-c3ccccc3)n2)cc1
The “hERG current change (%, negative = inhibition) at 1uM” value of the first is lower: 2.1% for the first, 16.6% for the second.

First: O=C(Cn1cnc2cc([N+](=O)[O-])ccc2c1=O)Nc1ccccc1Cl
Second: CC(=O)c1cccc(NC(=O)C2CC(=O)N(CCc3ccccc3)C2)c1 (stereo not drawn)
The “hERG current change (%, negative = inhibition) at 1uM” value of the first is lower: 6.18% for the first, 12.6% for the second.

First: O=C1c2ccccc2C(=O)N1C1CCCCC1
Second: CCOC(=O)Cc1csc(NC(=O)CN2C(=O)c3ccccc3C2=O)n1
The “hERG current change (%, negative = inhibition) at 1uM” value of the first is higher: 29.6% for the first, 15.5% for the second.

First: Cn1ccnc1SCc1ccc(Cl)cc1Cl
Second: CC(OC(=O)CCC(=O)c1cccs1)C(=O)Nc1ccc(Cl)cn1 (stereo not drawn)
The “hERG current change (%, negative = inhibition) at 1uM” value of the first is higher: 7.53% for the first, 4.92% for the second.

First: CCN(CC)C(=O)Cn1c(=O)c2ccccc2n2c(=S)sc(-c3cccc(C)c3)c12
Second: CCc1ccc(NC(=O)c2c(C(=O)Nc3ccccc3)sc3nc(C)cc(=O)n23)cc1
The “hERG current change (%, negative = inhibition) at 1uM” value of the first is higher: 17.1% for the first, 10.2% for the second.

Compared with `O=C1NC(=S)N/C1=C\c1ccc(Oc2ccc(C(F)(F)F)cc2[N+](=O)[O-])c(Cl)c1`, `O=C(O)c1ccc(S(=O)(=O)c2ccc3c(c2)C(=O)N(c2ccc(O)cc2)C3=O)cc1` is lower in “hERG current change (%, negative = inhibition) at 1uM” value: 9.8% for the first, 6.95% for the second.

Going from `CCN(CC)S(=O)(=O)c1ccc(S(=O)(=O)N2CCCC2)cc1` to `CNC(=O)OC(C)CNS(=O)(=O)c1ccc(C)cc1` (stereo not drawn), the “hERG current change (%, negative = inhibition) at 1uM” value falls from 11% to 6.78%.

Going from `O=C(CN1CCOCC1)N/N=C/c1c(O)ccc2ccccc12` to `O=C(Nc1cccnc1)c1c(O)c2cccc3c2n(c1=O)CC3`, the “hERG current change (%, negative = inhibition) at 1uM” value rises from 11.7% to 16.6%.

Compared with `O=C1C2C3C=CC(C3)C2C(=O)N1c1ccncc1` (stereo not drawn), `CCOC(=O)C1=C(N)N(c2ccccc2)C(=O)C1` is higher in “hERG current change (%, negative = inhibition) at 1uM” value: 8.16% for the first, 14.4% for the second.

Compared with `Cc1noc2ncnc(Oc3ccc(F)cc3)c12`, `CN(C(=S)Nc1ccc(F)cc1)C(c1ccccc1)c1ccccc1` is higher in “hERG current change (%, negative = inhibition) at 1uM” value: 1.07% for the first, 10.6% for the second.

First: CC1=C(C/C=C(\C)CCCC(C)CCCC(C)CCCC(C)C)C(=O)c2ccccc2C1=O (stereo not drawn)
Second: O=C(O)CCCc1c(-[n+]2ccccc2)[nH]c2ccccc12.[Cl-]
The “hERG current change (%, negative = inhibition) at 1uM” value of the first is higher: 19.2% for the first, 11.5% for the second.

Compared with `CCOC(=O)C1=C(C)NC(SCC(N)=O)=C(C#N)C1c1ccncc1` (stereo not drawn), `CCC(=O)Nc1cccc(C(=O)OC)c1` is higher in “hERG current change (%, negative = inhibition) at 1uM” value: 3.88% for the first, 15.6% for the second.

First: CC1CCC(NC(=O)CCS(=O)(=O)c2ccc3c(c2)NC(=O)CO3)CC1 (stereo not drawn)
Second: CC(C)C(=O)Nc1ccc(NC(=O)c2cccnc2)cn1
The “hERG current change (%, negative = inhibition) at 1uM” value of the first is higher: 10.6% for the first, 3.44% for the second.

With `Nc1cc(Nc2ccccc2)ccn1.O=P(O)(O)O` the “hERG current change (%, negative = inhibition) at 1uM” value was 9.53%.

Source: PMC4336329 (PLoS ONE, 2015)
